This is an account of results in PubChem BioAssay (NCI).

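How tested: cells in 96-well plates exposed to compound for 48 hours at five concentrations. GI50: concentration for 50% inhibition of growth. The concentration for full growth arrest is given as TGI.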

The subject of the assay is NCI-H322M lung. Briefly: NCI anticancer screen, dose series, 48 h.
In turn, `O=C1c2ccc3c4ccc5c6c(ccc(c7ccc(c2c37)C(=O)N1CCN1CCCCC1)c64)C(=O)N(CCN1CCCCC1)C5=O` returned a TGI above 100 µM.
Take `CC(c1ccccc1)N1C(=O)CSC1=S` (configuration not stated): the GI50 was 5.57 µM and the TGI was above 44.1 µM.
Consider `CC[C@H]1CC(=O)c2c(cc3c(c2O)C(=O)c2ccccc2C3=O)[C@@]1(C#N)C(=O)OC(C)(C)C`, for which the TGI was 20.6 µM.
Still for that read-out and setting: then `Cc1cn(CC2=NCC(O)CN2)c(=O)[nH]c1=O` (configuration not stated), with above 100 µM.
Take `O=C(/C=C/c1c(-c2ccccc2)[nH]c2ccccc12)S(=O)(=O)c1ccccc1`: the GI50 was above 100 µM and the TGI is above 100 µM.
`COc1ccc(Cc2c(N)[nH]c(=O)[nH]c2=O)cc1`: the TGI was above 100 µM.
As to `COc1cc(/C=C/[N+](=O)[O-])c([N+](=O)[O-])cc1OC`, the GI50 is 10.7 µM and the TGI stood at 22.5 µM.
For `CCCCCCCCNC(=O)SCCCC`, the TGI was above 100 µM.
Still for that read-out and setting: then `Cn1c(=O)c2[nH]c(CCCCc3nc4ccccc4[nH]3)nc2n(C)c1=O`, with above 100 µM.
